Experimental data: PubChem BioAssay (NCI)
Where “and” joins values, the source holds several entries; their conditions need not be identical. Equal entries are not always repeated.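 Briefly, cells in 96-well plates were exposed to five compound concentrations for 48 h, and endpoints were estimated by linear interpolation. GI50 = concentration required for 50% inhibition of growth. Definition used: TGI = concentration required for complete inhibition of growth.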

Test system: NCI-H322M lung
Experiment: NCI-60 cell line screen, 48 h

## CC1=C(C(=O)O)N2C(=O)[C@@H](NC(=O)C(c3ccccc3)N3CSC(=S)N(C(C)C)C3)C2SC1 (stereo partly specified)
  TGI: > 100 µM

## FC(F)(F)c1cccc(Oc2ccc(Nc3ncnc4ccc(OCCCN5CCOCC5)cc34)cc2Cl)c1
  GI50: 1.7 µM
  TGI: 7.13 µM

## C=CCC1(CN(C)C)CC/C(=C\c2cc(OC)c(OC)c(OC)c2)C1=O (stereo unspecified)
  TGI: > 100 µM

## COc1cccc(/C=C2\N=C(Cl)OC2=O)c1O
  TGI: > 100 µM

## COC(=O)[C@@H](C)C[C@H](Cc1ccccc1)NC(=O)c1csc([C@@H](C[C@H](C(C)C)N(C)C(=O)[C@@H](NC(=O)[C@H]2CCCCN2C)c2ccc(F)cc2)OC(C)=O)n1
  TGI: 25 µM and > 100 µM

## CCOc1cc2c(cc1O)C=C[C@@H]1[C@@H]2CC[C@]2(C)[C@@H](O)CC[C@@H]12
  TGI: 42.4 µM

## CC(C)(C)c1cc[n+](C[n+]2ccc(C(C)(C)C)cc2)cc1
  TGI: > 100 µM

## Clc1ccc(-c2nnc(-c3nn(-c4ccccc4)c4nc5ccccc5nc34)o2)cc1
  TGI: > 100 µM

## O=CC1=CCCN(CCc2c[nH]c3ccccc23)C1
  TGI: 103 µM

## CSc1c(C(N)=S)c(N)nn1-c1ccccc1
  TGI: > 100 µM

## CCOP(=O)(OCC)/C(=C\n1ccc(=O)[nH]c1=S)C(=O)OC
  TGI: > 100 µM

## Oc1ccc(O)c(-n2cccn2)c1
  TGI: > 100 µM

## CC1=NC(C)=C(/C(C)=N/NC(=O)c2ccccc2O)C(C)/C1=C(/C)NNC(=O)c1ccccc1O (stereo unspecified)
  TGI: > 100 µM

## COc1ccc(OC)c(-c2cc(-c3ccc(Cl)cc3)nn2-c2ccccc2)c1
  GI50: 40.1 µM
  TGI: > 100 µM

## O=C(Nc1ccc(Cl)cc1)c1cc(NCc2cc(O)ccc2O)ccc1O
  GI50: 16.1 µM
  TGI: 57 µM

## O=C(O)c1nn(-c2ccc(Cl)cc2)c2c1C(=O)c1ccccc1C2=O
  TGI: > 100 µM

## CO/S(=N/S(=O)(=O)c1ccccc1)c1ccccc1[N+](=O)[O-] (stereo unspecified)
  TGI: > 100 µM

## O=C1CC=C2C3CC4N(CCC45c4ccccc4N1C25)C/C3=C\CO (stereo unspecified)
  TGI: > 100 µM

## N[C@@H](Cc1c[nH]c2ccccc12)C(=O)NC1CCN(Cc2c[nH]c3ccc(Cl)cc23)CC1
  GI50: 11.6 µM
  TGI: 24.5 µM

## O=c1cc(-c2ccccc2)oc2c(O)c(O)ccc12
  GI50: 5.15 µM
  TGI: 50.4 µM

## O=C(O)CN1CCN2CCCCCCCCN(CC1)CCN(CC(=O)O)CC2
  TGI: > 100 µM

## COP(=O)(/C=C/C(NC(=O)C(Cl)(Cl)Cl)c1ccccc1)OC (stereo unspecified)
  TGI: > 100 µM

## NC1=C(O)/C(=N/NS(=O)(=O)c2ccccc2)C(c2ccc3c(c2)OCO3)O1 (stereo unspecified)
  TGI: > 100 µM

## CCCC[C@H](CCc1ccccc1)N(C(=O)OC)N1CCC[C@H]1COC
  TGI: 83 µM

## C/C(CC(O)(C(F)(F)F)C(F)(F)F)=N\NC(N)=S
  TGI: > 10 µM

## CC1(C)CC[C@]2(C)[C@@H](O)C[C@]3(C)C(=CC[C@@H]4[C@@]5(C)CC[C@H](O)C(C)(C)[C@@H]5CC[C@]43C)[C@@H]2C1
  TGI: > 100 µM

## CC1CCCc2c1n[nH]c2CC1CC(=O)NC(=O)C1 (stereo unspecified)
  TGI: > 100 µM

## C#Cc1cccc(Nc2nc(C)nc3cc(NC(=O)CCl)ccc23)c1
  GI50: 4.14 µM
  TGI: 7.54 µM

## C[C@H](CCC(=O)O)[C@H]1CC[C@H]2[C@@H]3[C@H](O)[C@H](O)[C@@H]4C[C@H](O)CC[C@]4(C)[C@H]3CC[C@]12C
  TGI: > 100 µM

## Cc1ccc(NC(=O)CCc2nnc3s/c(=C\C=C\c4ccccc4)c(=O)n23)cc1
  TGI: > 100 µM

## COc1ccc(-c2c(NC(=O)Nc3ccc(Cl)c(C(F)(F)F)c3)cnn2-c2ccc(S(N)(=O)=O)cc2)cc1
  GI50: 3.91 µM
  TGI: 14.3 µM

## CSc1ccc(Cc2cc(C(C)(C)C)cc(C(C)(C)C)c2O)cc1
  TGI: 32.4 µM

## COc1ccc2c(c1)C(=O)c1c-2n(CCCN=[N+]=[N-])c(=O)c2cc([N+](=O)[O-])ccc12
  GI50: 0.397 µM and 2.91 µM
  TGI: > 100 µM

## C[C@H](CCC(=O)O)[C@H]1CC[C@H]2[C@@H]3[C@@H](O)C[C@@H]4C[C@H](O)CC[C@]4(C)[C@H]3C[C@H](O)[C@]12C
  TGI: > 100 µM

## CCCCCCCCCCNC(=S)OC
  TGI: > 100 µM

## COC(=O)C(/C(=N/N)C(=O)Nc1cc(Cl)ccc1Cl)c1nc2ccc([N+](=O)[O-])cc2[nH]c1=O (stereo unspecified)
  TGI: > 100 µM

## CCCCN(C)CC(C(C)=O)C(c1ccccc1)c1c(O)c2ccccc2oc1=O (stereo unspecified)
  TGI: > 100 µM

## N=C1c2ccccc2C(=O)c2c(NCCNCCO)ccc(O)c21
  TGI: 29 µM

## CCCNC(=O)Cn1c2c(c3ccccc31)CCCC2
  TGI: > 100 µM

## C[N+]1(CCNP(=S)(NCC[N+]2(C)Cc3c(ccc4c3OCO4)C3C2c2cc4c(cc2C[C@@H]3O)OCO4)NCC[N+]2(C)Cc3c(ccc4c3OCO4)C3C2c2cc4c(cc2C[C@@H]3O)OCO4)Cc2c(ccc3c2OCO3)C2C1c1cc3c(cc1C[C@H]2O)OCO3 (stereo partly specified)
  GI50: 16.1 µM

## COC(=O)c1ccc(NCC2=CC(=O)C=CC2=O)cc1O
  TGI: 43 µM

## CC(=O)OCCCCn1nncc1Cn1ccc(=O)n(Cc2cnnn2CCCCOC(C)=O)c1=O
  TGI: > 100 µM

## COc1c(O)cc2c(c1O)C(=O)C(Cc1ccc(O)cc1)CO2 (stereo unspecified)
  TGI: > 100 µM

## COc1nc2ccc(Cl)c(C(O)c3ccccc3)c2nc1OC (stereo unspecified)
  TGI: > 100 µM

## CCC(CO)Nc1nc(NCc2ccccc2)c2n[nH]c(C(C)C)c2n1 (stereo unspecified)
  GI50: 10.4 µM
  TGI: 25.4 µM

## C[n+]1c2ccccc2n2c3ccccc3c(NCc3ccco3)c(C#N)c21
  TGI: 18.8 µM

## CC(=O)NNc1ncc(C(=O)/C=C/c2ccccc2C)s1
  TGI: > 100 µM

## CCCC(=O)Nc1cc(/C=C/C(=O)N2CC(CCl)c3ccc([N+](=O)[O-])cc32)n(C)c1 (stereo unspecified)
  TGI: > 100 µM

## CSc1nc2c(nc(N)n2C2OC(CO)C(O)C(O)C2O)c(=O)[nH]1 (stereo unspecified)
  TGI: > 100 µM

## C1=C2C3=[N+](CCCC3)CC2Cc2sccc21 (stereo unspecified)
  TGI: > 100 µM

## CC(=O)CCc1ccc(Oc2c3ccccc3nc3occc23)cc1
  GI50: 18.5 µM
  TGI: 39.2 µM

## CCCCCCCCCCCCCC(=O)OCC(CCS(=O)(=O)O[C@H]1CC[C@@]2(C)C(=CC[C@@H]3C2CC[C@]2(C)C(=O)CCC32)C1)OC(=O)CCCCCCCCCCCCC (stereo partly specified)
  TGI: > 100 µM

## Cc1cc(C)c([I+]c2c(C)cc(C)cc2C)c(C)c1
  GI50: 2.04 µM
  TGI: 4.55 µM

## C=C1C2CC(OC(C)=O)C3(C)C(c4ccoc4)OC(=O)[C@@H](O)[C@]13OC1C[C@H](OC(C)=O)C(C)(C)[C@H](C(O)C(=O)OC)[C@]12C (stereo partly specified)
  TGI: > 100 µM

## NC(CCl)=NCC12CC3CC(CC(C3)C1)C2
  GI50: 3.57 µM
  TGI: 19 µM

## Cc1cn(CC2(CO)CCC2)c(=O)[nH]c1=O
  TGI: > 100 µM

## Nc1ccc(C(=O)CC2(O)C(=O)Nc3ccccc32)cc1 (stereo unspecified)
  TGI: > 100 µM

## CCCC(=O)Oc1c2ccsc2c(OC(=O)CCC)c2ccsc12
  TGI: 7.52 µM

## O=c1oc2ccc(F)cc2c(=O)n1-c1ccc(I)cc1F
  GI50: 0.404 µM
  TGI: 11.3 µM

## O=C1C=CC(=O)c2c(O)c(NCCN3CCOCC3)c(Cl)c(O)c21
  TGI: 4.21 µM

## COc1ccc(NC(=O)c2ccc(C(F)(F)F)nc2Nc2ccc(Cl)cc2C)cc1Cl
  GI50: 20.3 µM
  TGI: 50.4 µM

## CCOc1ccc(Nc2ccnc3cc(Cl)ccc23)cc1
  GI50: > 100 µM
  TGI: > 100 µM

## Cc1ccc(N2C=Nn3c(nc4sc5c(c4c3=O)CCCC5)C2)cc1
  TGI: > 100 µM

## N#Cc1c(N)c(C(=O)c2ccc3c(c2)OCCO3)n2c1CCCC2
  GI50: 6.33 µM
  TGI: > 100 µM

## COC1=CC(c2ccc[nH]2)=N/C1=C\c1[nH]c(C)c(CC(=O)NCc2ccccc2)c1C
  GI50: 1.77 µM
  TGI: 3.29 µM

## O=C1C2CCCC2N1Cc1ccccc1 (stereo unspecified)
  TGI: > 100 µM

## N/C(=C\c1ccc(/C=C(\NC(=O)c2ccccc2)c2nc3c([nH]2)C(=O)c2ccccc2C3=O)cc1)c1nc2c([nH]1)C(=O)c1ccccc1C2=O
  TGI: 33.1 µM

## O=P(O)(O)c1ccc2c(c1)OCCOCCOCCOCCO2
  TGI: > 100 µM

## Fc1ccccc1-c1cc(=S)c2cc3c(cc2[nH]1)OCO3
  TGI: > 100 µM

## CC1(C)CC[C@]2(C(=O)NCCNCCN)CC[C@]3(C)C(=CC[C@@H]4[C@@]5(C)CCC(=O)C(C)(C)[C@@H]5CC[C@]43C)[C@@H]2C1
  GI50: 1.7 µM
  TGI: 3.24 µM

## CC(=O)/C(=C/N1CC(=O)NC1=S)C(=O)Nc1ccccc1C
  TGI: > 100 µM

## Cc1ccc2c(ccc3ncc(CNc4ccc(NS(C)(=O)=O)cc4)c32)[nH]1
  TGI: > 100 µM

## Cc1ccc(S(=O)(=O)NC(Cc2ccccc2)C(=O)CCl)cc1 (stereo unspecified)
  TGI: 31.2 µM

## COc1ccc2c(c1)c1ccc3c(c1n2C)C(=O)C=CC3=O
  TGI: 57.8 µM

## C=C(C)[C@@H]1C/C=C(/COC(C)=O)CC[C@H]2O[C@@]2(C)CC/C=C(\C)CC1
  GI50: > 100 µM
  TGI: > 100 µM

## C[C@]1(c2nc3c(C(N)=O)cccc3[nH]2)CCCN1
  GI50: 39.4 µM and > 92.7 µM
  TGI: > 100 µM

## CN1C(c2ccccc2)CC(=NO)CC1c1ccccc1 (stereo unspecified)
  TGI: > 100 µM

## COC(=O)Cc1cccc2c(=O)c(S(=O)(=O)NC(=O)Nc3ccc(Cl)cc3)c(-c3ccccc3)oc12
  TGI: > 100 µM

## COc1ccc(Cc2ccc3[nH]c(=O)cc(C)c3c2)cc1S(=O)(=O)O
  TGI: > 100 µM

## CC(C)CC(C#CCCOC(=O)c1ccccc1)OC(=O)c1ccccc1 (stereo unspecified)
  TGI: > 10 µM

## CS(=O)(=O)c1ccc(C(=O)O[C@@H]2C(=O)N3CC[C@H]4OC(O)[C@@H]2[C@H]43)cc1 (stereo partly specified)
  TGI: > 100 µM

## COC(=O)[C@@H](C)C[C@H](Cc1ccc(F)cc1)NC(=O)c1csc([C@@H](C[C@H](C(C)C)N(C)C(=O)[C@@H](NC(=O)[C@H]2CCCCN2C)C2CC2)OC(C)=O)n1
  GI50: 1.19 µM
  TGI: > 25 µM

## CCCC(=O)Oc1ccc(/C=N/NC(N)=S)nc1
  TGI: > 100 µM

## O=C(N/N=C/c1ccc([N+](=O)[O-])cc1)c1ccccc1Nc1ccnc(C(F)(F)F)c1
  GI50: 10.7 µM
  TGI: 36.9 µM

## O=S(=O)(O)c1ccc(N=Nc2ccc(N=Nc3c(O)ccc4ccc(S(=O)(=O)O)cc34)cc2)cc1
  TGI: > 100 µM

## CC[C@@]1(O)C(=O)OCc2c1cc1n(c2=O)Cc2c-1nc1ccccc1c2/C=N\NC(=O)C(N)Cc1ccc(O)cc1 (stereo partly specified)
  TGI: > 31.6 µM

## NCCCNCc1c2ccccc2c(CNCCCN)c2ccccc12
  TGI: 65.8 µM

## CC(C)(Oc1ccc2c(=O)cc(-c3ccc(Cl)cc3)oc2c1)C(=O)Nc1c(Cl)cccc1Cl
  TGI: > 100 µM

## CC(C)(C)OC(=O)NC(Cc1ccccc1)C(=S)N1CCCC1 (stereo unspecified)
  TGI: > 100 µM

## O=C([O-])c1ccccc1Nc1ccccc1C(=O)[O-].[OH3+].[Zn+2]
  TGI: 47.2 µM

## CO[C@H]1/C=C/O[C@@]2(C)Oc3c(C)c(O)c4c(O)c(c(/C=N/N5C(C)CN(Cc6ccc(C#N)cc6)CC5C)c(O)c4c3C2=O)NC(=O)/C(C)=C\C=C\[C@H](C)[C@H](O)[C@@H](C)[C@@H](O)[C@@H](C)[C@H](OC(C)=O)[C@@H]1C (stereo partly specified)
  GI50: 11.6 µM
  TGI: 26.3 µM

## COc1cc(/C=C2\C(=O)Nc3ccc(Cl)cc32)cc(OC)c1OC
  GI50: 84.7 µM
  TGI: > 100 µM
